# Assay results taken from article PMC4336329 (PLoS ONE, 2015).
# Among all 310,000 compounds or so, about 2,200 (0.71%) showed an effect of 50% or more. The effect is printed as a negative number. This is one part of the list.
# Molecular target: human ether-à-go-go-related gene (hERG) potassium channel (human, UniProt Q12809)
# Assay: primary screen, population patch clamp on CHO cells stably expressing hERG
# Sequence of human ether-à-go-go-related gene (hERG) potassium channel (Q12809 whole entry, looked up): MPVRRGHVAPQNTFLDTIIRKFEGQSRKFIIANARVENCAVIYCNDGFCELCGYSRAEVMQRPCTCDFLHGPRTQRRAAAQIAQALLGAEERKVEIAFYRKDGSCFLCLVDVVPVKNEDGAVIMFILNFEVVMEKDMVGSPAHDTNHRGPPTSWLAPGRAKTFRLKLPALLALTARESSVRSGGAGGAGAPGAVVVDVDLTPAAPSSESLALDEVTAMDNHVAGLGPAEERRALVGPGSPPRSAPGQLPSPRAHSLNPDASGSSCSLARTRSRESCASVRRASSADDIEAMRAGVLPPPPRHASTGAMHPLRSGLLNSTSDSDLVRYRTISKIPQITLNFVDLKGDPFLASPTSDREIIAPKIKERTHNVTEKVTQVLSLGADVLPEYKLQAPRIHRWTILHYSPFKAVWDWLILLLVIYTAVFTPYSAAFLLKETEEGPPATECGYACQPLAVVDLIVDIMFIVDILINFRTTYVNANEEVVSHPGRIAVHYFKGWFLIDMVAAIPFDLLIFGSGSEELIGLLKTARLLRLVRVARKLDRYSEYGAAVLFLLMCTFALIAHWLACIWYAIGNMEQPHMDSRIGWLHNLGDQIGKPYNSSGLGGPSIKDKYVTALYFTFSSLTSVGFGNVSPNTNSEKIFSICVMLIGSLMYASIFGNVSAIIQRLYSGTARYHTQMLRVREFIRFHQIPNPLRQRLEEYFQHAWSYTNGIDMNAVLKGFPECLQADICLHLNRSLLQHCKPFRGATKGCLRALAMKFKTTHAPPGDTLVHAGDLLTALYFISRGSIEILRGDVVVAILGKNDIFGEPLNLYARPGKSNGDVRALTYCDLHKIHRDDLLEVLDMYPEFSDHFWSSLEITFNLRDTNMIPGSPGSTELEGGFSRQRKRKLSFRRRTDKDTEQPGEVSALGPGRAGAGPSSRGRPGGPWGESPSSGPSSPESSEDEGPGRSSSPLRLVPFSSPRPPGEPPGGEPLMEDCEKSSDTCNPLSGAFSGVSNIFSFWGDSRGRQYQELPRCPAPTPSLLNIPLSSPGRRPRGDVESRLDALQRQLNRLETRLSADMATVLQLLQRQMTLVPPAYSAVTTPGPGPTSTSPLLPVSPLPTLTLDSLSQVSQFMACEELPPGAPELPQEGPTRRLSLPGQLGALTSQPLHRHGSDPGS
row,SMILES,"hERG current change (%, negative = inhibition) at 1uM [%]"
1,CSc1ccccc1NC(=O)C1=CC(c2cccs2)=NS(=O)(=O)N1C,7.25
2,c1ccc(C2=NNC(=NCc3ccc4c(c3)OCO4)SC2)cc1,-9.27
3,O=C(NCc1ccc(-c2csnn2)cc1)c1cccs1,3.72
4,Nc1cc(N)nc(SCC(=O)Nc2cccc(S(=O)(=O)N3CCCCC3)c2)n1,8.66
5,CSCC[C@H](NC(=O)NC1CCCC1)C(=O)O,12.8
6,CCOc1cc(C(=O)Nc2cccc3ncccc23)cc(OCC)c1OCC,-2.81
7,CCCNC(=O)c1ccc(OC)cc1OC,14.2
8,COc1cc(/C=N/NS(=O)(=O)c2ccccc2)ccc1OS(=O)(=O)c1ccc(C)cc1,10.5
9,S=c1[nH]nc(-c2ccncc2)n1/N=C/c1ccccc1,16.5
10,O=S(=O)(NC1CCCCC1N1CCCCC1)c1ccc(Cl)cc1 (stereo not shown),6.42
11,CSCCC1COC(c2cccs2)=N1 (stereo not shown),13.4
12,COc1cccc(-c2csc(N3CCN(CC(=O)NNC(=O)c4ccco4)CC3)n2)c1,4.94
13,O=C(O)Cn1c2ccccc2c2ccccc21,14.3
14,O=C(CC1C(=O)NCCN1Cc1ccc(F)cc1)NC1CCCCCCC1 (stereo not shown),5.24
15,CC(=O)Nc1ccc(S(=O)(=O)N(C)CC(=O)OC(C)C(=O)NC2CCCCC2)cc1 (stereo not shown),8.91
16,CCOC(=O)c1nc2nc(-c3cccs3)cc(C(F)(F)F)n2n1,21.1
17,CSC(=NCCCN1CCOCC1)NS(=O)(=O)c1cccs1,7.43
18,O=C(COC(=O)c1cccc(S(=O)(=O)NCc2ccccc2)c1)c1ccccc1,13.2
19,O=C(Oc1ccccc1)c1ccc(COC(=O)c2cnccn2)cc1,14.9
20,CNC(=S)N1CCC(c2nc3ccccc3s2)CC1,-12.5

row,SMILES,"hERG current change (%, negative = inhibition) at 1uM [%]"
1,Cc1nn2c(-c3ccccn3)ccnc2c1Br,15
2,CCCC(=O)Nc1ccc(NC(=O)C23CC4CC(CC(C4)C2)C3)cn1,11.7
3,CC1CCN(Cc2nnc(-c3cccc(Br)c3)o2)CC1,5.27
4,CC(C)CN(C(=O)COC(=O)c1cnccn1)c1c(N)n(Cc2ccccc2)c(=O)[nH]c1=O,12.9
5,Cc1cc(/C=N/n2cnnc2)c(C)n1-c1ccc2c(c1)OCO2,-2.71
6,COc1cc(NC(=O)C2CCCN(S(=O)(=O)c3cccc4nsnc34)C2)cc(OC)c1 (stereo not shown),8.96
7,CC(C)(C)NC(=O)COC(=O)c1ccc(Cl)c(S(N)(=O)=O)c1,5.96
8,Cc1cc(S(=O)(=O)N2CCN(Cc3ccc4c(c3)OCO4)CC2)cc(C)c1N1CCCC1=O,3.64
9,COc1ccccc1N(C(=O)c1cncc(Br)c1)c1nc(-c2ccc(C)cc2)cs1,6.23
10,CC(NC(=O)c1ccco1)c1ccc(-n2ccnc2)cc1 (stereo not shown),-7.74
11,CC(C)(C)c1nc(NC(=O)Nc2ccccc2)sc1Br,14.9
12,Cc1nnc(SCC(=O)c2c(N)n(C)c(=O)n(C)c2=O)[nH]c1=O,17.7
13,Cc1ccc2nc3c(cc(C(=O)NC4CCS(=O)(=O)C4)n3Cc3ccccc3)c(=O)n2c1 (stereo not shown),21.4
14,Cc1ccccc1-c1n[nH]c(=S)n1C,3.99
15,O=C(NNC(=O)c1ccccc1[N+](=O)[O-])c1ccc(NS(=O)(=O)c2cccs2)cc1,13.9
16,COc1ccc(OC)c(CN2CCN(C(=O)c3ccc(NS(=O)(=O)c4cccc([N+](=O)[O-])c4)cc3)CC2)c1,-4.89
17,CCCn1c(NCc2cccs2)nc2ccccc21,-6.87
18,CCN(CC)P(=O)(Nc1ccc(C)cc1Br)c1ccc(N(C)C)cc1NC(=O)c1ccco1 (stereo not shown),7.52
19,Cc1ccc(-c2nc(CS(=O)(=O)CC(=O)NC3CCCCC3C)c(C)o2)cc1 (stereo not shown),12.3
20,COc1cc(CNCc2ccccn2)ccc1OCc1ccc(Cl)c(Cl)c1.Cl,-5

row,SMILES,"hERG current change (%, negative = inhibition) at 1uM [%]"
1,COc1ccc(C(C(=O)NC2CCCC2)N(C(=O)c2csnn2)C2CCCC2)cc1 (stereo not shown),9.63
2,COc1cc(/C=C(\C#N)C(=O)c2c[nH]c3ccccc23)cc(OC)c1O,10.1
3,CCCC(=O)Nc1nnc(-c2ccc(Cl)s2)o1,11.5
4,O=C(O)c1ccc(N/N=C/c2cn(Cc3ccc(F)cc3)c3ccccc23)cc1,10.6
5,O=c1[nH][nH]c(C(F)(F)F)c1C=Nc1ccccc1Cl,11.4
6,COC(=O)c1ccc(C)c(NC(=O)CSc2nnc3ccccn23)c1,4.75
7,COc1ccc(CCN(Cc2cc3cccc(C)c3n3nnnc23)C(=O)c2ccncc2)cc1OC,1.24
8,O=C(NNC(=O)c1ccc([N+](=O)[O-])cc1)c1ccc(F)cc1,13.8
9,C[C@]12CC[C@@H]3c4ccc(O)cc4CC[C@H]3[C@@H]1C[C@@H](O)[C@@H]2O,1.94
10,COc1ccc2nc(N=NC3=C(O)CC(C)(C)CC3=O)sc2c1,7.73
11,NNC(=O)c1ccc(Cl)cc1,7.3
12,COc1ccccc1OCCC(=O)OCC(=O)Nc1ccc(Br)cc1F,-4.64
13,Cc1ccc(C)c(NC(=O)c2nc(-c3ccccc3)n(-c3ccccc3)n2)c1,4.53
14,c1ccc2sc(SN3CCOCC3)nc2c1,9.64
15,O=c1[nH]c(-c2cccs2)nc2ccccc12,4.72
16,Cc1ccc(S(=O)(=O)N(C)CCCC(=O)NC(C)(C)CO)cc1,10.2
17,Cc1cc(SCC(=O)c2ccc(Cl)cc2)nc(=O)[nH]1,9.85
18,O=C(Nc1ccc(Cl)c(Cl)c1)Nc1nc(-c2ccccc2)cs1,3.7
